# Test results from PubChem BioAssay AID686979 (National Center for Advancing Translational Sciences (NCATS), 2013).
# Where “and” joins values, the source holds several entries; their conditions need not be identical. Identical values can stand only once. In all, about 420,000 compounds went through this assay and about 50,000 (12%) were called active. Inconclusive results, whose numbers are uncertain, are shown with a selection of clear calls. Calls come from the whole dose curve; as a rule, active = well fitted inhibition curve with a large enough effect; inconclusive = small, poorly fitted or top-dose-only effect; inactive = flat fitted curve, though single readings scatter. Potencies of inconclusive entries are left out as doubtful fits.
# Experiment: qHTS for Inhibitors of human tyrosyl-DNA phosphodiesterase 1 (TDP1): qHTS in cells in presence of CPT; note: nearly all actives have a fitted effect of over 55% in size
# Settings: chicken DT40 Tdp1-/-;hTDP1 cells + 20 nM CPT, ATP luminescence, 48 h; activity change, negative = growth inhibition: at 46.2 µM (top of the series) unless noted
# Outline: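 Chicken DT40 Tdp1-/- cells stably complemented with human TDP1 were seeded at 400 cells/well in medium containing 20 nM camptothecin, exposed to pin-transferred compounds, and grown at 37 °C for at least 48 hr. Viability was read as ATP luminescence.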
# % is set by controls: 0 for no effect and ±100 for the full control effect; potency is the fitted concentration of half-maximal effect; tags give direction and shape of the fitted curve.
Structure (SMILES),Potency,"activity change, negative = growth inhibition"
O=C(NCCNC1CCC(c2ccccc2)CC1)c1cccs1 (stereo not given),"inconclusive [inhibitor, single point]",
CCN(CC)C(=O)c1cc2c(=O)n3cccc(C)c3nc2n1C,inactive,
Cc1ccc(C2(c3noc(CN4C[C@@H](C)O[C@@H](C)C4)n3)CCCC2)cc1,"inconclusive [inhibitor, single point]",
CCCn1c2ccccc2c2cnn(CC(=O)NC3CCCC(C)C3C)c(=O)c21 (stereo not given),"inconclusive [inhibitor, single point]",
Cc1ccc(NC(=O)CNc2cc(S(=O)(=O)N3CCOCC3)ccc2N2CCOCC2)cc1S(=O)(=O)N(C)C,inactive,
COC(=O)c1cccnc1SCc1ccccc1,"inconclusive [inhibitor, partial curve, poor fit]",
Cc1cc(=O)[nH]c(NN=C2CCCCC2C)n1 (stereo not given),"inconclusive [inhibitor, single point]",
CCOC(=O)c1sc(Nc2ccc(F)cc2)nc1C,,inconclusive: -31.6% [inhibitor]
CC(C)C(=O)N1CCN(c2ccccc2NC(=S)NC(=O)/C=C/c2ccco2)CC1,"inconclusive [inhibitor, single point]",
Cc1ccc(Nc2nc3nonc3[nH]c2=O)cc1C,"inconclusive [inhibitor, single point]",
Cc1csc(NC(=O)c2cccc(S(=O)(=O)N3CCCCC3)c2)n1,inactive,
Cc1ccc(/C=C/c2nc3ccccc3n2S(=O)(=O)c2ccc(Br)cc2)cc1,"inconclusive [inhibitor, single point]",
CC(=O)N1CCc2c(sc3c2c(=O)n(-c2ccccc2)c(=O)n3Cc2cccc(C(F)(F)F)c2)C1,active: 16.4 µM,
CCc1nc2ccc(C(=O)N(C)Cc3ccco3)cn2c1N(C)C(=O)Cc1ccccc1,inactive,
CCc1nc(N2CCN(C(=O)c3ccco3)CC2)c(C#N)c2c1COC(C)(C)C2,"inconclusive [inhibitor, single point]",
Oc1ccc2ccccc2c1C=NC1CCCCC1,"inconclusive [inhibitor, full curve, poor fit]",
Cc1ccc(OCC(=O)Nc2ccc(N3CCN(C(=O)c4ccco4)CC3)cc2)cc1C,"inconclusive [inhibitor, single point]",
O=C(/C=C/c1ccc(F)cc1)NC(=S)NNC(=O)c1cnccn1,active: 3.66 µM,
COC(=O)CSc1nc(C)cc(C)n1,"inconclusive [inhibitor, single point]",
O=C(O)Cc1ccc2sc(-c3ccccc3)nc2c1,"inconclusive [inhibitor, single point]",
COc1ccccc1NS(=O)(=O)c1cccc(C(=O)N/N=C/c2ccc(C)o2)c1,inactive,
CC(=O)Nc1ccc(-c2cn3cc(C)ccc3n2)cc1,inactive,
O=C(O)c1ccc2c(c1)OCCCO2,inactive,
Cc1ccc(NS(=O)(=O)c2ccc(C(=O)NCc3ccc(S(N)(=O)=O)cc3)cc2)cc1,"inconclusive [inhibitor, single point]",

Structure (SMILES),Potency,"activity change, negative = growth inhibition"
CN(C(=O)c1ccc(S(=O)(=O)c2cccc(Cl)c2)c([N+](=O)[O-])c1)C1CCCCC1,active: 3.66 µM,
Cc1ccc2cccc(OCCOCCOc3ccccc3Br)c2n1,"inconclusive [inhibitor, single point]",
Cc1sc2ncnc(Sc3nnnn3-c3ccccc3)c2c1C,active: 3.55 µM and active: 5.8 µM,
CCN1CCN(C(=O)CCc2ccc(S(=O)(=O)NCCc3ccccc3)cc2)CC1,inactive,
COc1cccc(N=C2SC(C(=O)Nc3cccc(Cl)c3)CC(=O)N2C)c1 (stereo not given),"inconclusive [inhibitor, single point]",
CCOC(=O)c1cnc2c(ccc3ccccc32)c1Nc1ccc(OC)cc1OC,"inconclusive [inhibitor, single point]",
CC(C)(C)c1ccc(O)c(/C=N\O)c1,inactive,
CCOC(=O)N1CCC(N2CCN(S(=O)(=O)c3ccc(Cl)cc3)CC2)CC1,"inconclusive [inhibitor, partial curve]",
Cc1ccc(C(=O)COC(=O)CCc2ccc(S(=O)(=O)N3CCCCC3)cc2)cc1,inactive,
COc1ccc(S(=O)(=O)N(C)C[C@H]2Oc3ccc(NC(=O)Nc4ccccc4)cc3C(=O)N([C@H](C)CO)C[C@@H]2C)cc1,"inconclusive [inhibitor, single point]",
CCOP(=O)(NC12CC3CC(CC(C3)C1)C2)NC12CC3CC(CC(C3)C1)C2,"inconclusive [inhibitor, single point]",
CC(=O)c1ccc(OCCCC(=O)NCCc2ccc(C(F)(F)F)cc2)cc1,inactive,
CC(=O)c1c(C)[nH]c(C(=O)COC(=O)c2c(C)noc2C)c1C,"inconclusive [inhibitor, partial curve, poor fit]",
COc1ccc(C(=O)c2c(N)c(-c3nc(-c4ccccc4)cs3)c3ccccn23)cc1,"inconclusive [inhibitor, single point]",
Cc1nc(-c2ccccc2)sc1-c1nc(-c2ccncc2)ncc1S(=O)(=O)c1ccccc1,"inconclusive [inhibitor, single point]",
COc1ccc(S(=O)(=O)NCC(c2ccc3c(c2)OCO3)N2CCN(c3ccccc3)CC2)cc1 (stereo not given),"inconclusive [inhibitor, single point]",
O=C(CCS(=O)(=O)c1ccccc1)Nc1ccc(-c2nc3ccccc3s2)cc1,inactive,
Cc1cccc(-n2c(=O)[nH]c3c(C(N)=O)nc(-c4ccccc4Cl)nc32)c1,"inconclusive [inhibitor, single point]",
CC12CN3CC(C)(CN(C1)C3c1ccccc1)C2O (stereo not given),inactive,
Cc1c(N2C(=O)/C(=C/c3cccc4ccccc34)SC2=S)c(=O)n(-c2ccccc2)n1C,"inconclusive [inhibitor, partial curve, poor fit]",
CCN(CC)CCCn1c2c(c(SCC(=O)Nc3ccc4c(c3)OCCO4)nc1=O)CCC2,"inconclusive [inhibitor, partial curve]",
COC(=O)c1ccccc1COc1cccn2c(N(C)C(=O)CCC3CCCC3)c(C)nc12,"inconclusive [inhibitor, single point]",
Cc1cc(OCC(=O)Nc2cc(S(=O)(=O)N3CCOCC3)ccc2N2CCCC2)ccc1C(C)C,active: 11.6 µM,
CN(C)C(=O)c1ccc2c(c1)C1C3CCC(C3)C1C(c1ccccc1)N2 (stereo not given),active: 16.4 µM,

Structure (SMILES),Potency,"activity change, negative = growth inhibition"
CSc1ncc(C(=O)N2CCN(c3ccc(Cl)cc3)CC2)c(C)n1,"inconclusive [inhibitor, single point]",
Cc1onc(-c2ccccc2Cl)c1C(=O)N(C)Cc1ccccc1,"inconclusive [inhibitor, single point]",
CC(C)[C@H](NS(=O)(=O)c1ccc2c(c1)OCCO2)C(=O)OCC(=O)Nc1cccc(Cl)c1Cl,"inconclusive [inhibitor, single point]",
O=C(O)c1cc(N2C(=O)C=CC2=O)cc(N2C(=O)C=CC2=O)c1,inactive,
COc1ccc(CCC(=O)NNC(=S)Nc2cccc(C(C)=O)c2)cc1,inactive,
COC(=O)Cc1ccc(NC(=O)c2ccc(C)c(C)c2)cc1,inactive,
COc1cc(C(=S)N2CCCC2)ccc1OS(=O)(=O)c1ccc(NC(C)=O)cc1,active: 14.6 µM,
O=C(NCCC1=CCCCC1)C1CCC(=O)N(Cc2cccc(C(F)(F)F)c2)C1 (stereo not given),"inconclusive [inhibitor, single point]",
CSc1cccc(NC(=O)CC(c2ccc(F)cc2)N2Cc3ccccc3C2=O)c1 (stereo not given),active: 23.1 µM,
COc1ccc2nc(NNC(=O)C3COc4ccccc4O3)sc2c1 (stereo not given),"inconclusive [inhibitor, single point]",
CN(C)S(=O)(=O)c1cccc(NC(=S)Nc2cccc3cnccc23)c1,active: 16.4 µM,
COc1cc(N)c(Cl)cc1C(=O)OCC(=O)Nc1cccnc1Cl,inactive,
COc1ccc(C)cc1NC(=O)c1oc2ccc(S(=O)(=O)N3CCOCC3)cc2c1C,inactive,
CC(C)CN(CC(C)C)c1nc(N)c(C#N)c(CC#N)c1C#N,"inconclusive [inhibitor, partial curve]",
CCOc1ccccc1NC(=O)c1ccc(C(=O)Nc2ccccc2OCC)cc1,inactive,
O=C(Cn1c(=O)n(Cc2ccco2)c(=O)c2sc3ccccc3c21)Nc1ccccc1C(F)(F)F,"inconclusive [inhibitor, partial curve]",
CC(=O)NC(c1ccccc1)c1nc(-c2cccc(C#N)c2)cs1 (stereo not given),"inconclusive [inhibitor, partial curve, poor fit]",
CCOC(=O)/C=C(C)/C=C/C=C(C)/C=C/c1c(C)cc(OC)c(C)c1C,"inconclusive [inhibitor, single point]",
Cc1nn(-c2ccccc2)c(Cl)c1/C=N/Nc1ccc(S(=O)(=O)Nc2ccccc2C(=O)O)cc1[N+](=O)[O-],"inconclusive [inhibitor, partial curve, poor fit]",
COc1ccc(CNC(=O)CNC(=O)c2ccc(Br)o2)cc1OC,inactive,
C#CCN(Cc1ccccc1)S(=O)(=O)C=C,active: 25.1 µM,
COC(=O)c1ccc(COc2cccc(OC)c2)o1,"inconclusive [inhibitor, single point]",
